# Publication PMC12136788
# The list shows a part of the results.
# B1: chr2:27041412:27041530:+|3pUTR|ENSG00000119777|msi1_unk|total|mutant (ssRNA)
# RNA: GGGAGUUCUACAGUCCGACGAUCACUUCAAAAUGCCCAGCCUGCCCCAAAUGCCUCUAAGCCCCUCCCUGUCCCCUCCCUUGCCGUCCUACUUCUUCCAACUUUCCAUUCCCCAUCAUGCUGGGGGUCUUGGUCACAAGGCUCCAACAGAGGAUUGAGCAUCA
# B2: chr15:64682558:64682659:+|3pUTR|ENSG00000180357|unk|FALSE|bound_elsewhere (ssRNA)
# RNA: GGGAGUUCUACAGUCCGACGAUCCACACUGGUCUUGCCUCUUCUUUUCCACUGCUUGGCUCUUAAGCCUCAGGCAGAUAAACUAGUAUUCCCCCCAGCUUGGGGAACCUUGGAGUCUGCCAGGUCACCUUAGGGCAAGGCCCACAACAGAGGAUUGAGCAUCA
# B3: chr17:75827259:75827360:-|3pUTR|ENSG00000092929|unk|total|mutant (ssRNA)
# RNA: GGGAGUUCUACAGUCCGACGAUCGGACAGUUUGGCUGCUGUGUCUGCUGCGCACGCCCCCUCCCCGGACAGCACCUGCCACCCCGAAACUUUCUCCGCAAAAAAAUUAAUAAAAACAAAUCCAUUGUCCUCUUAAAAUAUGCCCAACAGAGGAUUGAGCAUCA
# B4: ENSG00000136451:be:win_3101|3pUTR|ENSG00000136451|bound_else_gene|NA|bound_elsewhere_windowed (ssRNA)
# RNA: GGGAGUUCUACAGUCCGACGAUCUUCCAUUUAUACCCUACUGUGUCAGUUCAAGCAUCAAAAUACCUUGCAUCUGAGACAGACUUCCUACAUCAGGGACAGGUAUCUGUGUGUCAUUAUACAAAACAGUUCUAGGGGGUUGAACAACAGAGGAUUGAGCAUCA
# B5: chr9:122916526:122916627:-|3pUTR|ENSG00000171448|unk|total|mutant (ssRNA)
# RNA: GGGAGUUCUACAGUCCGACGAUCAUGCUUCCCCGCAUUGUGAUUUUUACAUGAUCCAGCCAAAGAGUACCAAUUCUAUGCAACCGUGAGACUCUACCCUGUCAACCAAACAGCAUUUUUUGGUAUUUUCUGUCAACAUCAUUUCAACAGAGGAUUGAGCAUCA
# B6: chr19:13098382:13098626:+|3pUTR|ENSG00000008441|msi1|total|mutant (ssRNA)
# RNA: GGGAGUUCUACAGUCCGACGAUCACGCAGUAUAUACGAGUAUCUCUAUAUACCGUACUAAUGGAUUUGGUGUGCUUCCCCCUCCGCGUCCCCCUCCCUCUGCUCCUCCUCCUUCAGCCUGGUCUCCCCCUCUUCUCUGCCCUCCAACAGAGGAUUGAGCAUCA
# B7: chr1:45003092:45003193:-|3pUTR|ENSG00000126107|msi1|FALSE|unique (ssRNA)
# RNA: GGGAGUUCUACAGUCCGACGAUCGGAAUCUUCCACAAGCCCAGCACAAGCUGCCAGGCCUGAGCUACUUGAAGGGGGCCAUCUAGGUCCCCAACCCAUGGACUUUGCCUCCAUUUUCAGCUCCGCCUUUUUUCUCCUAUUUUCCAACAGAGGAUUGAGCAUCA
# B8: chr1:161190761:161190881:-|3pUTR|ENSG00000158859|msi1|FALSE|unique (ssRNA)
# RNA: GGGAGUUCUACAGUCCGACGAUCUGCGGGUCACAGGAGGGAGGGGGAAGGCAGGGAGGGCCUGGGCCCCAGUUGUAUUUAUUUAGUAUUUAUUCACUUUUAUUUAGCACCAGGGAAGGGGACAAGGACUAGGGUCCUGGGGAACAACAGAGGAUUGAGCAUCA
# B9: chr4:150908776:150908877:-|CDS|ENSG00000198589|msi1|FALSE|bound_elsewhere (ssRNA)
# RNA: GGGAGUUCUACAGUCCGACGAUCGUUGAUUUGUACUUAGAUUCUCUUUGUGGCAUACUAUUUAACUGUUUUUAAUUAAUUCUUAGGGUACAUUUAAAUUCAAAGCAGAAAGCGACCUUUUCCUUGCUGAGCAUCACAAACUUUCAACAGAGGAUUGAGCAUCA
# B10: chrX:152990254:152991598:-|CDS|ENSG00000198883|control|control|control (ssRNA)
# RNA: GGGAGUUCUACAGUCCGACGAUCAUACAGGGAGGCUUACCCCCAUUAGUGAAACGCAGGCGGCUGUUAGGCAGUGAAAGCACUAGGGGAGAAGACCAUGGCCAGGCCACGUAUCCCAAGGCUGAAAACCAGACUCCAGGCAGGCAACAGAGGAUUGAGCAUCA
# B11: chr1:202147012:202148699:-|three_prime_utr|ENSG00000143851|control|control|control (ssRNA)
# RNA: GGGAGUUCUACAGUCCGACGAUCAAGUGGGCCGAGUGAUCUGGGGGUACCCCUUGGGUUGGUGUGGGGAAGGAGUGCCUCCUUAGUGGUGCUUGCAGUCACAGGAAGCAGCAGCAGUAAGGACAAGGGGCCGGAUUCCAGGUCCAACAGAGGAUUGAGCAUCA
# B12: ENSG00000198589:be:win_3051|CDS|ENSG00000198589|bound_else_gene|NA|bound_elsewhere_windowed (ssRNA)
# RNA: GGGAGUUCUACAGUCCGACGAUCAGAAAUGAAAGCUGAGCAAGAAAAUCAGGAGUUACCAGAUGAAGGCACUUUGGAAGAAACACUGACAAAUGAGACAAGGAAUGCAGAUGAUUUAGAAGUAUCUUCUGACAUAAUAGAAGCCAACAGAGGAUUGAGCAUCA
# B13: chr7:135927258:135927359:-|3pUTR|ENSG00000105887|msi1_unk|total|mutant (ssRNA)
# RNA: GGGAGUUCUACAGUCCGACGAUCCAGCUUCAGACUGUUAUCUACCGGCUUAUCGUUCAAAUACAGCACUUGAAUAUCCCAAGCCGUUCUUCUACGCACCGCUCACCUUUCUAAACCCAGUUAAGCAUGGAAGAGAGGCCGCCGCAACAGAGGAUUGAGCAUCA
# B14: chr2:210024032:210024201:-|CDS|ENSG00000144445|control|control|control (ssRNA)
# RNA: GGGAGUUCUACAGUCCGACGAUCUACAGUAAAAAUGUUGAAGGACAGGACUUGCUUUUGAAAGAAUACCCUAAUAACUUCAGUAGCAGUCAGCAAUGUGCUGCUGCAAGUCCUCCUGGGCUUCCUUCAGAGAACCAGGAUCUGCAACAGAGGAUUGAGCAUCA
# B15: chr8:58579689:58579790:+|CDS|ENSG00000137575|msi1|FALSE|bound_elsewhere (ssRNA)
# RNA: GGGAGUUCUACAGUCCGACGAUCAGCACUGGACAUGUUGGUUUUAUCUUUAAAAAUGGAAAAAUAACAUCCAUAGUGAAAGAUAGCUCUGCAGCCAGAAAUGGUCUUCUCACGGAACAUAACAUCUGUGAAAUCAAUGGACAGCAACAGAGGAUUGAGCAUCA
# B16: chr9:95099063:95099164:-|3pUTR|ENSG00000158169|unk|total|mutant (ssRNA)
# RNA: GGGAGUUCUACAGUCCGACGAUCGAGCGCCCCUCCAACCAGGCUGUUAUUCCCCUGGACUCCGUGACAUCUGUGGAAUUUUUCCGCUCUUUAAAAUCUGUAAUUUGUUGUCUAUUUUUUCAUUCUAAAUAAAACUUCAGUUUGCAACAGAGGAUUGAGCAUCA
# B17: ENSG00000136451:be:win_551|CDS|ENSG00000136451|bound_else_gene|NA|bound_elsewhere_windowed (ssRNA)
# RNA: GGGAGUUCUACAGUCCGACGAUCGAGAUGUGUACCAUCUCAAUCGACACAAGCUCUCCCAUUCAGAUGAGAAACCCUUUGAGUGUCCUAUUUGUAAUCAGCGCUUCAAGAGGAAGGACCGGAUGACUUACCAUGUGAGGUCUCCAACAGAGGAUUGAGCAUCA
# B18: chr1:32680599:32680700:+|3pUTR|ENSG00000162521|msi1|FALSE|unique (ssRNA)
# RNA: GGGAGUUCUACAGUCCGACGAUCAAGUGCUUAAAAUGGAAUAAAUUGCUUUUCUACAUAACCCCAUGCUGAUGGGUUUUAUUUAGUAUAAAACAUCCAUCAAACACCAGUCUCUGGCUUCUAGAAGAGUCCUUCAGAUGACAGCAACAGAGGAUUGAGCAUCA
# B19: chr1:74475294:74475810:-|CDS|ENSG00000162621|control|control|control (ssRNA)
# RNA: GGGAGUUCUACAGUCCGACGAUCUUUAGAAACCUGAAAAAGAAAGACCGUGGGGUAGGCAGCACUUUAUUUUGCCAGGAUGGUAGAUUGCUGCAUUCGGAAUGUUCAGAGCCUCCUGGAAAUAUGAGAGCUUUUAAUGAAGCACAACAGAGGAUUGAGCAUCA
# B20: ENSG00000146842:stop:overlap|stop_codon|ENSG00000146842|stop_codon|NA|stop_codon (ssRNA)
# RNA: GGGAGUUCUACAGUCCGACGAUCUGCUUGGGAGAGUUAAUCUUGGUCUAUCUGGUGUGAAUAUAUUGUGGAUCUUUGGCGAGUAGCAAGUCAUAUAUUUAAUUCUGACAUUUAGACUAUUUCACUGAACCAGAAGUCGAAACUCAACAGAGGAUUGAGCAUCA
# B21: chr1:37590682:37590793:-|CDS|ENSG00000134697|unk|FALSE|unique (ssRNA)
# RNA: GGGAGUUCUACAGUCCGACGAUCAAGCAAAGCAAGUUACCAAUGUCUCUUCUCCAUGAUCGAAUCCGGCCUCAUGUAAGAUGUAGGAUAUCCCUGGUGAUGGAAUUUCCUGGGCAAACUCCAUGCAGAUCCCUCUCUAACAUACAACAGAGGAUUGAGCAUCA
# B22: chr3:10101824:10101929:+|3pUTR|ENSG00000144554|unk|total|mutant (ssRNA)
# RNA: GGGAGUUCUACAGUCCGACGAUCAAAAUCUCUGAGUCAUGAUUCUGGACUUUGGGAGCCCGUUUUGAAACUCUGAUUUAUUGCCGAACUCCGGCUUGUACCAAUUUUACAAAUAAAUUCUGUUCUAAGUUCUGCCUCAGUUGCCAACAGAGGAUUGAGCAUCA
# Molecular target: MSI1 full-length (mouse, UniProt Q61474 1-362)
# UniProt Q61474, sequence (Q61474 whole entry): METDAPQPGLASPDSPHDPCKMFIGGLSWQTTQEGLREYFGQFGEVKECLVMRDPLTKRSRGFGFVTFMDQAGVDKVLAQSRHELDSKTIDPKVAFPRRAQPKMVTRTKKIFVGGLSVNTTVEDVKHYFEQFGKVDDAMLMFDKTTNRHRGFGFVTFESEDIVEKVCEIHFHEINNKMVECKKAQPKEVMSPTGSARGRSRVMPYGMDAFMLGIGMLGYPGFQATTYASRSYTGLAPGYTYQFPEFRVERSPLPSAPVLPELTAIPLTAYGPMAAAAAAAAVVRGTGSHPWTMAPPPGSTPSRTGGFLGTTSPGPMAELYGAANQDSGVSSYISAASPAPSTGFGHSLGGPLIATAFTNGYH
# Assay: nsRBNS (natural sequence RNA bind-n-seq); RBNS binding buffer (assumed for nsRBNS): 25 mM Tris pH 7.5, 150 mM KCl, 3 mM MgCl2, 0.01% Triton X-100, 500 ug/ml BSA, 20 U/ml SUPERase-In, 4 C; UNK is unkempt and MSI1 is Musashi-1; names of the RNAs are library labels; protein concentration not given here; high values mean tight binding
row,Binder,binding signal
1,B1,0.832 enrichment R
2,B2,0.307 enrichment R
3,B3,0.516 enrichment R
4,B4,0.41 enrichment R
5,B5,0.226 enrichment R
6,B6,0.998 enrichment R
7,B7,0.465 enrichment R
8,B8,14.9 enrichment R
9,B9,5.5 enrichment R
10,B10,0.808 enrichment R
11,B11,0.536 enrichment R
12,B12,0.825 enrichment R
13,B13,0.394 enrichment R
14,B14,0.408 enrichment R
15,B15,0.291 enrichment R
16,B16,0.763 enrichment R
17,B17,0.307 enrichment R
18,B18,0.478 enrichment R
19,B19,0.481 enrichment R
20,B20,0.426 enrichment R
21,B21,0.396 enrichment R
22,B22,0.338 enrichment R
